Results on 16 compounds are retold here after PubChem BioAssay AID1745853 (National Center for Advancing Translational Sciences (NCATS), 2022).

The other results are listed elsewhere or left out. These are further read-outs of the screen, such as a control signal, another cell line or another target. No call is given for them.

Experiment in all cases: Primary Screen for Target Class Profiling of Small Molecule Inhibitors of Methyltransferases
Assay [1] addresses Glycine N-methyltransferase (Homo sapiens) (UniProt Q14749). As to conditions: purified enzyme, MTase-Glo SAH luminescence; measured here: GNMT inhibition; at 40 µM; stronger effect = lower value. A digest of the protocol:
(§1)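 Each enzyme was reacted with SAM and its substrate, with compounds tested once at 40 uM; SAH formed was read by MTase-Glo luminescence.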

For assay [2], the target named is Guanidinoacetate N-methyltransferase (Homo sapiens) (UniProt Q14353). The following applies: purified enzyme, MTase-Glo SAH luminescence; measured here: GAMT inhibition; at 40 µM; stronger effect = lower value. The gist of the method:
as §1

For assay [3], the target named is Histamine N-methyltransferase (Homo sapiens) (UniProt P50135). The following applies: purified enzyme, MTase-Glo SAH luminescence; measured here: HNMT inhibition; at 40 µM; stronger effect = lower value. The gist of the method: as §1
The target in assay [4] is Nicotinamide N-methyltransferase (Homo sapiens) (UniProt P40261). The following applies: purified enzyme, MTase-Glo SAH luminescence; measured here: NNMT inhibition; at 40 µM; stronger effect = lower value. The gist of the method:
as §1

Assay [5] deals with Phenylethanolamine N-methyltransferase (Homo sapiens) (UniProt P11086). The following applies: purified enzyme, MTase-Glo SAH luminescence; measured here: PNMT inhibition; at 40 µM; stronger effect = lower value. The gist of the method: as §1
On the % scale 0 is the no-effect control and ±100 the full control effect.

`CCC(C)NC(=O)c1ccc2c(=O)n(Cc3ccccc3)c3nn(Cc4cccc(Cl)c4)c(=O)n3c2c1` (stereo not given): the activity change, negative = inhibition in assay [1] was 0.773%; in assay [2] it was 1.6%; in assay [3], -0.577%; in assay [4], 2.99%; in assay [5] it was 1.55%.
For the compound `CC(=O)c1ccc(O[C@@H]2O[C@H](CO[C@@H]3OC[C@@H](O)[C@H](O)[C@H]3O)[C@@H](O)[C@H](O)[C@H]2O)cc1`, the activity change, negative = inhibition in assay [1] is 3.95%; in assay [2], 5.86%; in assay [3], 6%; in assay [4], -8.95%; in assay [5] it was -1.11%.
The corresponding values for `O=c1cc(O)cc(/C=C/c2ccc(O)c(O)c2)o1` are -63.8%, -8.37%, -27%, -13.6% and -0.512%.
The corresponding values for `C[C@H](C(=O)N1CCSCC1)C1CC[C@@]2(C)Cc3sc(Nc4c(Cl)cccc4Cl)nc3[C@@H](C)[C@@H]2[C@H]1O` (stereo not given in full) are -3.77%, 0.685%, 0.59%, -1.58% and 9.43%.
In the case of `COc1cccc(N2C(=O)c3cc4ccccc4n3CC2(C)C(=O)NC2CCCCCC2)c1` (stereo not given), the activity change, negative = inhibition was -0.115% in assay [1]; 4.56% in assay [2]; -1.81% in assay [3]; -3.9% in assay [4]; -4.05% in assay [5].
The corresponding values for `O=C(COCC(=O)N1CCN(C(c2ccccc2)c2ccccc2)CC1)Nc1ccc(Cl)cc1C(=O)O` are -33%, 7.28%, 12.6%, -62.4% and -6.77%.
On the same counts, the results for `Cc1nc2ccccc2c(-c2ccc3c4c(ccnc24)CCO3)c1[C@H](OC(C)(C)C)C(=O)O` are 1.44%, -3.58%, 4.13%, -20.8% and -6.23%.
Take `O=C(N[C@@H]1C[C@H](Cn2cc(CN3CCS(=O)(=O)CC3)nn2)[C@@H](O)[C@H]1O)C1CCCC1`: the activity change, negative = inhibition in assay [1] is -0.698%; in assay [2] it was 1.48%; in assay [3] it was 0.537%; in assay [4], -3.07%; in assay [5], -3.49%.
As to `CCOC(=O)c1cc2n(n1)CC(C)(C(=O)NC1CCCC1)N(CCc1cccs1)C2=O` (stereo not given), the activity change, negative = inhibition in assay [1] is -3.02%; in assay [2], 2.02%; in assay [3], 0.789%; in assay [4], -5.65%; in assay [5], -2.54%.
`CCCNC(=O)C(C)n1ccc2cc(S(=O)(=O)N3CCCC3)ccc21` (stereo not given): the activity change, negative = inhibition in assay [1] stood at 8.51%; in assay [2], 0%; in assay [3], 5.67%; in assay [4], 8.99%; in assay [5] it was 1.85%.
On the same counts, the results for `Cc1ccccc1COC1CN(C(=O)C2CCN(C(=O)C3CC3)CC2)C1` are -1.58%, 0.543%, 0.109%, -0.705% and 11.3%.
The corresponding values for `Cc1ccc(Cl)cc1NC(=O)CSc1nnc2[nH]c(=O)c(C)nn12` are 11.3%, 0%, 5.69%, 0.621% and -0.879%.
The corresponding values for `O=C(NC1CCCC1)c1ccc2c(=O)n(Cc3ccccc3)c3nn(Cc4ccccc4)c(=O)n3c2c1` are -1.33%, 0.804%, 2.33%, -2.83% and -1.65%.
Consider `CCC(C(=O)NC(C)C)n1ccc2cc(S(=O)(=O)N3CCCCC3)ccc21` (stereo not given), for which the activity change, negative = inhibition in assay [1] amounted to 7.82%; in assay [2] it was 1.7%; in assay [3], 8.57%; in assay [4], 13.9%; in assay [5] it was 7.22%.
As for `CCOc1ccc(-c2cc3c(=O)n(CCNC(=O)c4ccoc4)ccn3n2)cc1`, the activity change, negative = inhibition in assay [1] is -4.43%; in assay [2], -1.48%; in assay [3], 1.06%; in assay [4], -0.784%; in assay [5] it was 2.41%.
With `O=C(Nc1cc(F)ccc1F)N1Cc2c(sc3c2CCCC3)-n2cccc2C1c1ccc(F)cc1` (stereo not given), the activity change, negative = inhibition in assay [1] was -2.34%; in assay [2] it was 0.24%; in assay [3] it was -1.34%; in assay [4] it was -6.2%; in assay [5], 6.02%.
